Reference: PubChem BioAssay AID1508624 (National Center for Advancing Translational Sciences (NCATS), 2021)
Among all 48,000 compounds or so, about 120 (0.25%) were called active. Not shown: some 4% with an inconclusive outcome. Calls come from the whole dose curve; as a rule, active = well fitted activation curve with a large enough effect; inconclusive = small, poorly fitted or top-dose-only effect, or another doubt; inactive = no such curve, though single readings can be large or run the other way. The list shows a part of the results.

experiment: Primary qHTS for Identification of Small Molecule Activators of Huntingtin-Antisense Promoter Activity; settings: HEK293 HTT-AS promoter firefly luciferase reporter (activity 0% = vehicle and -100% = no light), 24 h; series mostly up to 57.5 µM; activity change, positive = activation: at the top concentration; note: nearly all actives have a fitted effect of over 55% in size
How it was run: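 Firefly luciferase signal from promoter-reporter HEK293 cells was scaled between vehicle (0%) and zero RLU (-100%). Compounds were tested at final concentrations of up to 57.5 uM over 24 h at 37 degrees C. PTC124 at 50 uM final served as control inhibitor.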

| SMILES | activity change, positive = activation |
| --- | --- |
| CCCSC1=NC2(CCN(C(=O)NC3CCCCC3)CC2)N=C1c1ccc(OC)cc1 | inactive: -21.9% |
| O=c1c2c3c(sc2nnn1CCCCOc1ccc(Cl)cc1)CCCC3 | inactive: -2.06% |
| COc1cc(-c2noc(-c3cc4cccc(C)c4oc3=O)n2)cc(OC)c1OC | inactive: -9.59% |
| CCOc1ccccc1-n1c(N)c(C(=O)OC)c2nc3ccccc3nc21 | inactive: -24.7% |
| COc1ccc(-c2nsc(NC(=O)c3oc4ccc(Cl)cc4c3C)n2)cc1 | inactive: -3.85% |
| O=C(Nc1ccc(F)cc1)c1nc(SCc2ccccc2F)ncc1Cl | inactive: -21.8% |
| N#C/C(=C/c1ccc(O)cc1)c1nc(-c2ccc(-c3ccccc3)cc2)cs1 | inactive: -14.5% |
| Cc1nc(-c2cccc(F)c2)sc1CCNC(=O)Cc1ccc(F)cc1 | inactive: -29.7% |
| CC(C)c1ccc(-c2noc(SCC(=O)N3CCN(c4ccccc4F)CC3)n2)cc1 | inactive: -7.49% |
| COc1ccc(Cn2ccn(CC(=O)Nc3cc(C)ccc3C)c(=O)c2=O)cc1 | inactive: -13.3% |
| Cc1ccc(NC(=O)Cn2c(=O)ccc3cc(S(=O)(=O)N4CCCC4)ccc32)cc1C | inactive: -25.5% |
| Cc1c(C(=O)N2CCC(C(=O)Nc3ccc(F)c(Cl)c3)CC2)sc2nc[nH]c(=O)c12 | inactive: -12.4% |
| Cc1cc2nn(-c3ccc(F)cc3)nc2cc1NC(=O)c1ccc(C(C)(C)C)cc1 | inactive: -8.3% |
| COc1cc(CN(C(=O)c2ccccc2)c2ccccn2)cc(OC)c1OC | inactive: 25.3% |
| COc1ccc(-c2cn3cccnc3n2)cc1NC(=O)c1ccccc1C(F)(F)F | inactive: 3.48% |
| COc1ccc2c(c1)c(=O)c(C(=O)c1ccc(F)cc1)cn2CC(=O)Nc1ccc2c(c1)OCCO2 | inactive: -22.9% |
| COc1cc(C(=O)Nc2cc(C)c(O)c(-c3nc4cc(Cl)ccc4o3)c2)cc(OC)c1OC | inactive: -9.7% |
| CCN(CC)C(=O)c1sc2c(c1C)c(=O)n(-c1ccccc1)c(=O)n2CC(=O)N(CC)c1cccc(C)c1 | inactive: -5.16% |
| Cc1cn2c(=O)cc(COC(=O)COc3ccc(C)c(C)c3)nc2s1 | inactive: -7.48% |
| CCCOc1ccc(C(=O)N(Cc2ccc(Cl)cc2)Cc2ccco2)cc1 | inactive: -28.2% |
| C=C1C(=CC=C2CCC[C@]3(C)[C@@H]([C@H](C)CCCC(C)(C)O)CC[C@@H]23)C[C@@H](O)C[C@@H]1O | inactive: -9.69% |
| Cc1ccc(CNC(=O)c2ccc3c(c2)NC(=O)C(CS(=O)(=O)Cc2cccc(C)c2)N3)cc1 (stereo unspecified) | inactive: -17.8% |
| COc1cc(NC(=O)CCS(=O)(=O)c2ccc(Br)cc2)cc(OC)c1 | inactive: -11.9% |

| SMILES | activity change, positive = activation |
| --- | --- |
| CC(CCc1ccc2c(c1)OCO2)NN (stereo unspecified) | inactive: 0.758% |
| CN(C(=O)CSc1nncn2c1cc1occc12)c1ccccc1 | inactive: -23.6% |
| CCCCN(C)C(=O)CN1C(=O)c2cccnc2Oc2ccc(Cl)cc21 | inactive: -12.5% |
| Cc1ccc(Cl)cc1NC(=O)Cn1nnc2sc3c(c2c1=O)CCC(C(C)(C)C)C3 (stereo unspecified) | inactive: -19.9% |
| Cc1cccc(N(C)S(=O)(=O)c2nnc(NC(=O)C(C)(C)C)s2)c1 | inactive: -35.3% |
| C[C@@]1(c2cc(-c3cncnc3)c(F)cc2F)CCSC(N)=N1 | inactive: -29.1% |
| COc1ccc(CCNc2ncnc3c2cnn3-c2ccc(F)cc2)cc1 | inactive: -20.2% |
| Brc1ccc(CN2CCc3nc(Nc4ccccc4)ncc3C2)s1 | inactive: -2.22% |
| O=C(c1ccc2c(c1)N(Cc1ccccc1F)C(=O)c1ccccc1S2=O)N1CCC(Cc2ccccc2)CC1 (stereo unspecified) | inactive: -41.7% |
| COc1ccc(OC)c(CNC(=O)c2cc3c(=O)oc4ccc(C)cc4c3s2)c1 | inactive: -4.08% |
| COc1ccc(N(Cc2cc3cc(OC)ccc3[nH]c2=O)C(=O)c2cccc(Cl)c2)cc1 | inactive: 20.3% |
| COc1cc([C@@H]2c3cc4c(cc3[C@@H](O[C@@H]3O[C@@H]5CO[C@@H](c6cccs6)O[C@@H]5[C@H](O)[C@@H]3O)[C@H]3COC(=O)[C@H]23)OCO4)cc(OC)c1O | inactive: -44% |
| COc1cccc(CNC(=O)Nc2cn(CC(C)C)c(=O)c3ccccc23)c1 | inactive: -11.5% |
| COc1ccc(-c2oc3ncn4nc(-c5ccccc5OC)nc4c3c2-c2ccc(OC)cc2)cc1 | inactive: -7.47% |
| CCOc1ccc(-n2c(-c3ccc(Br)cc3)cc3c2CC(C)(C)CC3=O)cc1 | inactive: -22.5% |
| CCOC(=O)c1cc(-c2ccc(F)cc2)n(CCC(=O)Nc2nc3cc(C)c(C)cc3s2)c1C | inactive: -9.4% |
| Cc1nnc2c3ccccc3nc(Nc3ccc(F)cc3Cl)n12 | inactive: 0.278% |
| Cc1nc(N2CCCC2)ncc1C(=O)Nc1ccc(OC(F)(F)F)cc1 | inactive: -26.5% |
| COc1ccc(OCc2ccc(-c3nc(C#N)c(NCc4ccc(F)cc4)o3)o2)cc1 | inactive: -23.1% |
| COc1cc(OC)cc(-n2c(=O)c3sccc3n(Cc3cc(=O)n4c(C)cccc4n3)c2=O)c1 | inactive: -4.24% |
| Cc1ccc2c(CC(=O)Nc3nnc(C(C)C)s3)coc2c1C | inactive: 12.3% |
| COc1cc(CNC(=O)c2sc3ncccc3c2-n2cccc2)cc(OC)c1OC | inactive: -18.9% |
| COc1cccc(C2CC(=O)Nc3cc(OC)c(OC)c(OC)c32)c1OC(C)C (stereo unspecified) | inactive: -11.2% |
